From PMC12136788 come the findings set out here.

Some of the results follow.

B1: chr13:41369065:41369066:+_ENSMUSG00000091264_ENSMUST00000165561|mus_hu|FALSE|FALSE (ssRNA)
RNA: GGGAGUUCUACAGUCCGACGAUCAAGAGUACUGGUUAUGCAGCACUUCUUGAAAGAGUGCUCCAACACUGUCUUCUGUUUAAUGGCAGUGGGGAGCUUGGGACAAAACGAUGUUUGAUGCCUUAAUGAUAGUCCUGCUCGACGCAACAGAGGAUUGAGCAUCA
B2: chr2:48035047:48035048:-_ENSG00000138081_ENST00000403359|hu_mus|FALSE|FALSE (ssRNA)
RNA: GGGAGUUCUACAGUCCGACGAUCCAAAAUUGCAGCUUAUUUCUUCACUUCUGUCCCUUCAAAAGUCUUUACGCAGUAAUGCUAAAAUCCCGAGCUCUGACAUCCUGAGUCAAUCUAUUGCCACUUCCUUUUUGGUAGCUUGAGCAACAGAGGAUUGAGCAUCA
B3: chr7:36537692:36537693:-_ENSMUSG00000043671_ENSMUST00000051377|mus_mus|motif|central (ssRNA)
RNA: GGGAGUUCUACAGUCCGACGAUCCAAUUUCUUUUCCAACUUCACAUCUUCUUUUGGUGAUGGAAAAUCCUCAGAAACUUCGGUGGGUUUUGUCUCUUUUCUUUGCCGGAUGUACAUCAUGAUGUCAAAGACUCAUACGCAUUGCAACAGAGGAUUGAGCAUCA
B4: chr11:2966284:2966285:-_ENSG00000205531_ENST00000380542|hu_mus|motif|central (ssRNA)
RNA: GGGAGUUCUACAGUCCGACGAUCGAGGGUGAACCCGAUGGCUCUGGCCUCAGAGGUGUGUGCCACAACCCACCCACCCCGGAAACCAAAACGCAAGAAAAAAAAUGCUCUAAGGCGAGCACAGCUUCCUCUACAGUGCUUGGGCAACAGAGGAUUGAGCAUCA
B5: chr2:74714714:74714715:+_ENSMUSG00000027099_ENSMUST00000028511|mus_hu|FALSE|FALSE (ssRNA)
RNA: GGGAGUUCUACAGUCCGACGAUCAUGUUUCAAGGAAACAAAAAUUUCAAGAUACAGAAUACAACAUAUCAGAUUAAAUAAUUCAGAAUUAUUUUAAUGUAUACACAAAUAACAAUAUAAAGCACAUACAUAAGAUACAUUAUACAACAGAGGAUUGAGCAUCA
B6: 38807162_38812148_1086_CDS_ENSG00000006715_ENST00000395969|human|control|control (ssRNA)
RNA: GGGAGUUCUACAGUCCGACGAUCCUCCACCAGGUGAUUUAUAUAUGCCAAGCCAAUAUCCAGAAUCUUAUGUCUUUUAAUAUUUUUUUGGCUAAUUUCAGCUGCCAUCAAUGCUUCUUCAUAUUUCUUCUUUUCAAGGAGCCACAACAGAGGAUUGAGCAUCA
B7: chr2:216986912:216986913:+_ENSG00000079246_ENST00000392132|hu_mus|FALSE|FALSE (ssRNA)
RNA: GGGAGUUCUACAGUCCGACGAUCCAGUUGUCGUAGACUCUCACUGAAGGAAUAAAUUUCAUCCAGCCCGUCUUCGCCUUCUAAGGACAGCAUCACCCUUGUCACCAUGCGGAUGCCUUCCUUUUGCUGCUCAGUAAGUCCUUUCAACAGAGGAUUGAGCAUCA
B8: chr14:62154062:62154063:-_ENSMUSG00000021930_ENSMUST00000100496|mus_hu|FALSE|FALSE (ssRNA)
RNA: GGGAGUUCUACAGUCCGACGAUCUUUUUCAAAACCAGGUGGAGGCGUAUGAUAAAACUCACUGAACUGGCAAUCCAAAAUUGCACUGUCAUCAACAUAAACAACUGGAUACACUGUCCCUCGUAUACCUGAUGCUGGACAAUGCAACAGAGGAUUGAGCAUCA
B9: chr4:95585729:95585730:+_ENSG00000163110_ENST00000317968|hu_hu|motif|central (ssRNA)
RNA: GGGAGUUCUACAGUCCGACGAUCGAUUACAGGCGUGAGCCACCGCGCUCAGCCUACAAGCAAUUUUUUAAAAACUGACACCGGUUACUGAUAAAAUUCUCUGUUUAAAAUCCUAUUUACUAUUUUAAAGAUAAGUAUUAGUUUCAACAGAGGAUUGAGCAUCA
B10: chr4:103517381:103517382:+_ENSG00000109320_ENST00000505458|hu_hu|FALSE|FALSE (ssRNA)
RNA: GGGAGUUCUACAGUCCGACGAUCCUCACCAUUCCCAACGGUGGCCUCGCUGGGCUCCUGAUCUUGCUCUGUGGUUUCAAUAACUUUCCCAAAGAGGUUUACAGUGUUUUUGUCAUCACUUUUGUCACAACCUUCAGGGUCCUUCAACAGAGGAUUGAGCAUCA
B11: chr11:69466514:69466515:+_ENSG00000110092_ENST00000227507|hu_mus|FALSE|FALSE (ssRNA)
RNA: GGGAGUUCUACAGUCCGACGAUCCAUUUCUCAACCUAAAAACUCUUCUACUUUAACAAUGGUUUGCUGUAUUUUUUUUCCUUCCUUUUUAAAGCAAUGUUUCUUAAGCUUUUUUUUAAAAACAUAUAAAAGAAUCAAAACUCCCAACAGAGGAUUGAGCAUCA
B12: 72891450_72891570_2619_CDS_ENSG00000009954_ENST00000339594|human|control|control (ssRNA)
RNA: GGGAGUUCUACAGUCCGACGAUCCCGUUCCUUCCACAACUCUGCAGACAUCUGCUGUCUGGUCUCCAUGUGGUCUUGCACUGAGUAUGUCAUGAGGAUCCGGUGGCACAGUGCUGUCAAGAUCUGUAGCUUCUCCUCUGACGUCAACAGAGGAUUGAGCAUCA
B13: chr3:119450855:119450856:-_ENSMUSG00000028134_ENSMUST00000029780|mus_hu|mus_mus_mus_hu_False|98_98 (ssRNA)
RNA: GGGAGUUCUACAGUCCGACGAUCUGUGGUGCCACUAAGAGGUGUAUUUGCUGUCUGGACAGCUGUCACAGCUUGAAGAACUGCCUGAGCACGUUGGUUUAAUGUAUUAUCUGUCUUUAGUUCUUUGUGAUUCGAGUACUGGAUCAACAGAGGAUUGAGCAUCA
B14: chr17:45757422:45757423:+_ENSG00000108424_ENST00000290158|hu_hu|FALSE|FALSE (ssRNA)
RNA: GGGAGUUCUACAGUCCGACGAUCUACAUCCUUCCCAAAUGCUGUACAUAAGUCCCCUAUUAGUCCAGCAGCACAAGCUACUACUCCAUCUGUGUGAUCCUCAUCUCCAGCAAUGUGGUCAAUGAAAGACAGAAUAAAUUCUACCAACAGAGGAUUGAGCAUCA

In this assay the target is T1, UNK ZnF1-3 (human, UniProt Q9C0B0 31-174).
T1 sequence: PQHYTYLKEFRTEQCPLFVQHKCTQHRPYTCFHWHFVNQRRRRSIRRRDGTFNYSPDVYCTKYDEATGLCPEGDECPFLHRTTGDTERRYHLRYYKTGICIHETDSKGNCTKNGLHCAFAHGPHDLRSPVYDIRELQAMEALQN
The experiment in a line: nsRBNS (natural sequence RNA bind-n-seq); RBNS binding buffer (assumed for nsRBNS): 25 mM Tris pH 7.5, 150 mM KCl, 3 mM MgCl2, 0.01% Triton X-100, 500 ug/ml BSA, 20 U/ml SUPERase-In, 4 C; UNK is unkempt and MSI1 is Musashi-1; names of the RNAs are library labels; protein concentration not given here; high values mean tight binding.
Molecule B1 displayed a binding signal of 0.449 enrichment R.
Under B2 stands 0.552 enrichment R; under B3, 0.504 enrichment R.
B4: the binding signal came out at 1.03 enrichment R.
Then B5, with 0.68 enrichment R; and B6, with 1.18 enrichment R; and B7, with 0.794 enrichment R.
In the case of B8, the binding signal worked out at 0.993 enrichment R.
Under B9 stands 1.89 enrichment R; under B10, 0.692 enrichment R.
Then B11, with 1.24 enrichment R; and B12, with 0.529 enrichment R; and B13, with 0.709 enrichment R.
Under B14 stands 1.14 enrichment R.
